Assay results from PubChem BioAssay AID504332 (National Center for Advancing Translational Sciences (NCATS), 2011).
About 31,000 (8.9%) of roughly 350,000 compounds were called active. Inconclusive results, whose numbers are uncertain, are shown with a selection of clear calls. The call rests on the fitted dose curve; in most records, active means well fitted inhibition curve with a large enough effect; inconclusive means small, poorly fitted or top-dose-only effect; inactive means no such curve, though single readings can be large or run the other way. Where the call is inconclusive, the potency comes from a doubtful curve fit.
Further: nearly all actives have a fitted effect of over 75% in size.
On the % scale 0 is the no-effect control and ±100 the full control effect; potency means the concentration at half of the fitted maximal effect; tags describe the fitted curve by direction and shape.

Each compound was assayed against Histone-lysine N-methyltransferase EHMT2 (Homo sapiens) (UniProt Q96KQ7) (assay: qHTS Assay for Inhibitors of Histone Lysine Methyltransferase G9a). Details: G9a H3K9 monomethylation, AlphaScreen, 2 h; activity, negative = inhibition: at 59 µM (top of the series) unless noted.
UniProt Q96KQ7, sequence (Q96KQ7 whole entry, looked up): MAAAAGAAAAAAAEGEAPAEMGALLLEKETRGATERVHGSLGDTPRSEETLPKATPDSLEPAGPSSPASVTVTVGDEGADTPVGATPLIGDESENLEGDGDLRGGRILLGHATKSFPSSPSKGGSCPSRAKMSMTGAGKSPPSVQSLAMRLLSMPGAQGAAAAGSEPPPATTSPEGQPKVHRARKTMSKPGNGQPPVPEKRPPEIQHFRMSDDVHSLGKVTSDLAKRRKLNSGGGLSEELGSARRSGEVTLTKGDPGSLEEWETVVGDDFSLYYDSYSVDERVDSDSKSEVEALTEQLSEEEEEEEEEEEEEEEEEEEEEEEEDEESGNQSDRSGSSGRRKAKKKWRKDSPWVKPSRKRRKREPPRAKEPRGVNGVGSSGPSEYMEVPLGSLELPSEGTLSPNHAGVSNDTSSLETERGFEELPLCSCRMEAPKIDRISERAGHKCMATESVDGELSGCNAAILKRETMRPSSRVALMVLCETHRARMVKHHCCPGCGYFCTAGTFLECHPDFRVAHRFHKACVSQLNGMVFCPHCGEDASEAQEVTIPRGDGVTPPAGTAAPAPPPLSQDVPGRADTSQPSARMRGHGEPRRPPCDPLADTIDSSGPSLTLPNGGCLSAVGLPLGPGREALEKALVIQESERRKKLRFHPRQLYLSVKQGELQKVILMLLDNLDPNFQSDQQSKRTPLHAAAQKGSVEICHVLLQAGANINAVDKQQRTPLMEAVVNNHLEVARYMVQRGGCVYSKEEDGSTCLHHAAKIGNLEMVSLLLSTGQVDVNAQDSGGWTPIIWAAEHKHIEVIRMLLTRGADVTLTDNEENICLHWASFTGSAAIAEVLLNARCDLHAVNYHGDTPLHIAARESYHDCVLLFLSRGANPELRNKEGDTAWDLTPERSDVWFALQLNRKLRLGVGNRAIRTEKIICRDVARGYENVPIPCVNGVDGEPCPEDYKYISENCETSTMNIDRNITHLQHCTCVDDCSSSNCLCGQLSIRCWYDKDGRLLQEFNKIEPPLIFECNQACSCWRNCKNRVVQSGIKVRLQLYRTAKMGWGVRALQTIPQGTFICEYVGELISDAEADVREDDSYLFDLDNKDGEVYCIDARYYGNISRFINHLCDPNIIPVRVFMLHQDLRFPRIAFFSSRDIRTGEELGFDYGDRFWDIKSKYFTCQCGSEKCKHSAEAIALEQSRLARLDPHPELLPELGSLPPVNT
Procedure, shortened: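 Compounds were preincubated with 20 nM G9a for 15 min, after which biotinylated H3K9 peptide (500 nM) and SAM (20 uM) started a 2 h room-temperature reaction. Monomethylated product was quantified by antibody-based AlphaScreen chemiluminescence.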
In the case of `Cc1cccc2[nH]c3c(N4CC=C(c5ccc(F)cc5)CC4)ncnc3c12`, the Potency is reported as inconclusive: 39.8 µM [inhibitor, partial curve].
In the case of `CCCN1C(=O)/C(=C\C=C2/Sc3ccccc3N2CCO)SC1=S`, the Potency is reported as inconclusive: 50.1 µM [inhibitor, partial curve].
With `NS(=O)(=O)c1ccc(CCNC(=O)C2CCCCN2S(=O)(=O)c2ccccc2)cc1` (configuration not stated) the Potency was inconclusive: 35.5 µM [inhibitor, single point].
For `COc1ccc(C(=O)Nc2ccc(S(=O)(=O)Nc3ncccn3)cc2)cc1OC`, the activity, negative = inhibition was inconclusive: -54.9% [inhibitor] [at 0.501 µM].
With `CCOc1ccc(CCNC(=O)c2ccc(CSCc3ccccc3C)o2)cc1OCC` the Potency was inconclusive: 5.01 µM [inhibitor, single point].
For `O=C(Nc1ccc(Cl)c(Cl)c1)Nc1ccccc1O`, the Potency was inconclusive: 70.8 µM [inhibitor, partial curve, poor fit].
For `Cc1cc(C(=O)N2CCC(Cc3ccccc3)CC2)ccc1[N+](=O)[O-]`, the Potency was inconclusive: 79.4 µM [inhibitor, single point].
In the case of `O=C(/C=C/c1cn(-c2ccccc2)nc1-c1cccs1)NCCN1CCOCC1`, the Potency is reported as inconclusive: 70.8 µM [inhibitor, single point].
In the case of `COc1cc(C(F)(F)F)c(C(=O)N(C)Cc2cccc(Cl)c2)cn1`, the “activity, negative = inhibition” value is reported as inactive: 10.1% [at 102 µM].
In the case of `CCOC(=O)c1c(NC(=O)COc2ccccc2)sc(C(C)=O)c1C`, the Potency is reported as active: 12.6 µM.
With `CCOc1ccc(Cc2nnc(SCC(=O)Nc3c(C)cccc3C)[nH]c2=O)cc1` the “activity, negative = inhibition” value was inactive: 3.01% [at 102 µM].
With `Cc1cc(NS(=O)(=O)c2ccc(NC(=O)CCCOc3ccccc3C)cc2)nc(C)n1` the Potency was inconclusive: 22.4 µM [inhibitor, single point].
With `Cn1cccc1-c1cc(C(=O)N/N=C/c2ccccc2Cl)[nH]n1` the Potency was inconclusive: 79.4 µM [inhibitor, single point].
`Cc1ccc(NC(=S)c2ccc3ccccc3n2)c(C)c1` was tested, and the Potency was active: 8.91 µM.
For `CCN(CC)CCNC(=O)c1ccc(NC(=O)c2cc(-c3ccco3)nc3ccccc23)cc1`, the Potency was active: 31.6 µM.
With `COCC(=O)Nc1ccc(N(C)C)cc1` the Potency was active: 2.51 µM.
For `O=C(CN(C(=O)CNC(=O)c1cccs1)c1cccc(F)c1)NC1CCCCC1`, the “activity, negative = inhibition” value was inactive: 5.5%.
With `O=c1cc(CSc2nnnn2-c2ccccc2)nc(Nc2ccc(F)cc2)[nH]1` the Potency was inconclusive: 89.1 µM [inhibitor, single point].
For `CN(C(=O)c1ccoc1)c1ccc2ccccc2c1`, the “activity, negative = inhibition” value was inactive: -1.64% [at 102 µM].
For `COc1ccc(C2C(C(=O)N3CCN(c4ccccc4)CC3)c3ccccc3C(=O)N2C)cc1OC` (configuration not stated), the activity, negative = inhibition was inconclusive: -58.1% [inhibitor] [at 12.7 µM].
For `COc1ccc(Cl)cc1NC(=O)CCN1C(=O)NC(C)(C)C1=O`, the Potency was inconclusive: 79.4 µM [inhibitor, single point].
In the case of `CC1(C)CC(=O)c2cc(-c3nc(-c4ccc(F)cc4)cs3)c(=O)[nH]c2C1`, the Potency is reported as active: 1.26 µM.
With `COCCNC(=O)c1onc(CSc2cc(C)cc(C)c2)c1C(=O)O` the activity, negative = inhibition was inactive: 52.2% [at 0.501 µM].
With `C[C@]1(C(=O)NCCN2CCOCC2)C=C[C@@H](Cc2ccccc2)N1C(=O)c1ccccc1` the Potency was inconclusive: 89.1 µM [inhibitor, single point].
`Cc1c(/C=N/NC(=O)c2cccnc2)c2ccccn2c1C(=O)c1ccc(F)cc1` was tested, and the “activity, negative = inhibition” value was inactive: 31.4%.
`Cc1ccc(C)c(N2CCN(c3ccc4cc(S(=O)(=O)N5CCCCC5)ccc4n3)CC2)c1` was tested, and the activity, negative = inhibition was inconclusive: -108% [inhibitor].
In the case of `O=c1cc(/C=C/c2c(F)cccc2Cl)[nH]c2ccccc12`, the Potency is reported as inconclusive: 28.2 µM [inhibitor, single point].
In the case of `COc1ccc(C2=NOC(CNC(N)=S)C2)cc1` (configuration not stated), the Potency is reported as inconclusive: 89.1 µM [inhibitor, partial curve, poor fit].
In the case of `CCn1c(SCC(=O)OC)nnc1-c1ccccc1`, the Potency is reported as active: 14.1 µM.
With `Nc1c(Cl)ncnc1N/N=C/c1ccccn1` the Potency was inconclusive: 22.4 µM [inhibitor, single point].
For `O=C(O)CSc1nc(-c2ccccc2)nc2c1oc1ccccc12`, the Potency was inconclusive: 79.4 µM [inhibitor, partial curve, poor fit].
For `COc1ccc(C(=O)N(C)Cc2cnn(Cc3ccccc3)c2)cc1S(=O)(=O)N1CCOCC1`, the activity, negative = inhibition was inactive: 5.52% [at 12.7 µM].
In the case of `Clc1ccccc1-c1nn2c(COc3ccccc3)nnc2s1`, the activity, negative = inhibition is reported as inconclusive: -61.5% [inhibitor].
For `CCOc1ccc(NS(=O)(=O)c2ccc(OCC(=O)NCCCOC)cc2)cc1`, the activity, negative = inhibition was inactive: 1.35% [at 12.7 µM].
`CCn1cc(CN2CCC(n3nccc3NC(=O)Cc3ccccc3)CC2)c(C)n1` was tested, and the “activity, negative = inhibition” value was inactive: 50.6% [at 102 µM].
With `COC(=O)c1ccccc1NC(=O)C(Cc1ccccc1)N1Cc2ccccc2C1=O` (configuration not stated) the “activity, negative = inhibition” value was inactive: -33.9%.
For `COc1ccccc1NC(=O)/C=C/C(N)=O`, the Potency was inconclusive: 2.82 µM [inhibitor, full curve, poor fit].
In the case of `O=C(CSc1nnc(NC(=O)c2ccccc2C(=O)O)s1)Nc1ccccc1Cl`, the Potency is reported as inconclusive: 56.2 µM [inhibitor, partial curve, poor fit].
In the case of `Cc1cc(C)c2c(=O)c3c(oc2c1)C(=O)N(CCCOC(C)C)C3c1ccccc1F` (configuration not stated), the “activity, negative = inhibition” value is reported as inactive: -0.268%.
With `COC(=O)c1ccc(S(=O)(=O)N2CCc3ccccc32)cc1` the “activity, negative = inhibition” value was inactive: 46.6% [at 102 µM].
In the case of `CCN(CC)Cc1cc(O)c(CN(CC)CC)cc1O`, the Potency is reported as active: 1.26 µM.
`COc1cccc(CC(=O)Nc2c(C(=O)N3CCN(c4ccccc4F)CC3)oc3ccccc23)c1` was tested, and the Potency was inconclusive: 25.1 µM [inhibitor, single point].
For `CC(=O)N/C(=C/c1ccc2c(c1)OCO2)C(=O)N1CCOCC1`, the activity, negative = inhibition was inactive: 20.8% [at 0.501 µM].
With `O=C(c1cnccn1)N(Cc1cccs1)C1(C(=O)NC2CCCC2)CCCCC1` the “activity, negative = inhibition” value was inactive: 22.6% [at 102 µM].
With `COCc1nnc(NC(=O)CCCOc2ccccc2OC)s1` the Potency was inconclusive: 79.4 µM [inhibitor, single point].
For `Cc1cc(C(=O)O)c(CSc2ncn[nH]2)o1`, the Potency was inconclusive: 28.2 µM [inhibitor, single point].
For `COCCCN1C(=O)C(=O)/C(=C(/O)c2ccc(S(=O)(=O)N3CCCCC3)cc2)C1c1ccc(O)cc1` (configuration not stated), the Potency was inconclusive: 44.7 µM [inhibitor, partial curve, poor fit].
With `CN(CCCNC(=O)c1cccc(N2CCCC2=O)c1)c1ccccc1` the Potency was active: 8.91 µM.
`COc1ccc(CCNC(=O)Cn2c(=O)nc(-c3ccccc3)c3cc(Cl)ccc32)cc1OC` was tested, and the activity, negative = inhibition was inactive: -1.01% [at 12.7 µM].
In the case of `COc1ccc(N2CCN(C(=O)c3cccc(Br)c3)CC2)c([N+](=O)[O-])c1`, the activity, negative = inhibition is reported as inconclusive: -96.7% [inhibitor].
In the case of `O=[N+]([O-])c1cc(/C=N/Nc2nc3ccccc3[nH]2)c(O)cc1O`, the Potency is reported as active: 50.1 µM.
With `CCc1nnc(NC(=O)c2ccc3c(=O)n4c(nc3c2)CCCCC4)s1` the Potency was inconclusive: 89.1 µM [inhibitor, partial curve, poor fit].
In the case of `O=S(=O)(c1ccccc1)n1nc(-c2ccc(Cl)cc2)nc1NCc1ccccc1`, the “activity, negative = inhibition” value is reported as inactive: 30%.
In the case of `O=C(C1=C(O)C(=O)N(CC2CCCO2)C1c1ccccc1[N+](=O)[O-])c1ccco1` (configuration not stated), the Potency is reported as active: 35.5 µM.
`O=C(C1=C[C@H](c2csc3ccccc23)C[C@H](OCCCCO)O1)N1CCN(Cc2ccccc2)CC1` was tested, and the activity, negative = inhibition was inconclusive: -72.6% [inhibitor].
For `COc1ccccc1Cn1cnc2cccnc21`, the Potency was inconclusive: 44.7 µM [inhibitor, partial curve].
`Cc1cc(/C=N/NC(N)=S)c(C)n1-c1ccc(Cl)cc1` was tested, and the “activity, negative = inhibition” value was inactive: -6.55%.
For `Cc1ccc(C(=O)CC(=O)c2ccccc2)cc1`, the “activity, negative = inhibition” value was inactive: 15.9% [at 102 µM].
With `COc1ccc(OC)c(NC(=O)CN(c2ccc(C)cc2)S(=O)(=O)c2c(C)n[nH]c2C)c1` the Potency was inconclusive: 89.1 µM [inhibitor, single point].
For `CCOc1ccc(OCC)c(NC(=O)CN(C)S(=O)(=O)c2cccc3nsnc23)c1`, the Potency was inconclusive: 17.8 µM [inhibitor, partial curve, poor fit].
`CCOc1ccc(NC(=O)CSc2nc3c([nH]c4ccccc43)c(=O)n2-c2cc(C)cc(C)c2)cc1` was tested, and the “activity, negative = inhibition” value was inactive: 10.4%.
In the case of `COC(=O)c1cc2c(ccn2-c2ccc(F)cc2)n1C(C)C`, the activity, negative = inhibition is reported as inactive: -7.84% [at 0.0925 µM].
With `CCOC(=O)N=Nc1c(O)n(CC)c2ccccc12` the Potency was inconclusive: 39.8 µM [inhibitor, single point].
For `COc1ccc(NC(=O)CSc2nc3c(oc4ccccc43)c(=O)n2-c2ccccc2)cc1OC`, the “activity, negative = inhibition” value was inactive: 0.291%.
With `CCN(CC)S(=O)(=O)c1cccc(-c2n[nH]c(=S)n2/N=C/c2ccc(Br)cc2)c1` the Potency was inconclusive: 5.01 µM [inhibitor, partial curve, poor fit].
In the case of `O=C(Nc1cccnc1N1CCOCC1)c1cc2ccccc2oc1=O`, the “activity, negative = inhibition” value is reported as inactive: -12.4% [at 102 µM].
For `Cc1cc(C(=O)OCC(=O)Nc2sc3c(c2C#N)CCC(C)C3)c2ccccc2n1` (configuration not stated), the Potency was active: 44.7 µM.
With `CSCCC(NC(=O)c1ccco1)C(=O)N1CCN(C(c2ccccc2)c2ccccc2)CC1` (configuration not stated) the Potency was inconclusive: 50.1 µM [inhibitor, partial curve].
With `O=S(=O)(Nc1nc2ccccc2nc1Cl)c1cccc(C(F)(F)F)c1` the “activity, negative = inhibition” value was inactive: 8.96% [at 102 µM].
For `CCOc1ccccc1NS(=O)(=O)c1c(C)noc1C`, the Potency was inconclusive: 89.1 µM [inhibitor, single point].
With `CCOc1ccc(CN(C)C(=O)c2cccnc2OCC)cc1OC` the Potency was inconclusive: 89.1 µM [inhibitor, single point].
`COc1cc2c(cc1OC)C(C)N(C(=O)Cc1ccc(C(F)(F)F)cc1)CC2` (configuration not stated) was tested, and the Potency was inconclusive: 1 µM [inhibitor, partial curve, poor fit].
